Consider 44 molecules from paper PMC4336329 (PLoS ONE, 2015).

In all, about 310,000 compounds went through this assay and about 14,000 (4.5%) showed an effect of 50% or more. The effect is printed as a negative number. This is one part of the list.
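Further: peak tail current of the secondary pulse compared with the same well before compound.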

The assay deals with human ether-à-go-go-related gene (hERG) potassium channel (human, UniProt Q12809). In words: primary screen, population patch clamp on CHO cells stably expressing hERG.
Sequence of human ether-à-go-go-related gene (hERG) potassium channel (Q12809 whole entry, looked up): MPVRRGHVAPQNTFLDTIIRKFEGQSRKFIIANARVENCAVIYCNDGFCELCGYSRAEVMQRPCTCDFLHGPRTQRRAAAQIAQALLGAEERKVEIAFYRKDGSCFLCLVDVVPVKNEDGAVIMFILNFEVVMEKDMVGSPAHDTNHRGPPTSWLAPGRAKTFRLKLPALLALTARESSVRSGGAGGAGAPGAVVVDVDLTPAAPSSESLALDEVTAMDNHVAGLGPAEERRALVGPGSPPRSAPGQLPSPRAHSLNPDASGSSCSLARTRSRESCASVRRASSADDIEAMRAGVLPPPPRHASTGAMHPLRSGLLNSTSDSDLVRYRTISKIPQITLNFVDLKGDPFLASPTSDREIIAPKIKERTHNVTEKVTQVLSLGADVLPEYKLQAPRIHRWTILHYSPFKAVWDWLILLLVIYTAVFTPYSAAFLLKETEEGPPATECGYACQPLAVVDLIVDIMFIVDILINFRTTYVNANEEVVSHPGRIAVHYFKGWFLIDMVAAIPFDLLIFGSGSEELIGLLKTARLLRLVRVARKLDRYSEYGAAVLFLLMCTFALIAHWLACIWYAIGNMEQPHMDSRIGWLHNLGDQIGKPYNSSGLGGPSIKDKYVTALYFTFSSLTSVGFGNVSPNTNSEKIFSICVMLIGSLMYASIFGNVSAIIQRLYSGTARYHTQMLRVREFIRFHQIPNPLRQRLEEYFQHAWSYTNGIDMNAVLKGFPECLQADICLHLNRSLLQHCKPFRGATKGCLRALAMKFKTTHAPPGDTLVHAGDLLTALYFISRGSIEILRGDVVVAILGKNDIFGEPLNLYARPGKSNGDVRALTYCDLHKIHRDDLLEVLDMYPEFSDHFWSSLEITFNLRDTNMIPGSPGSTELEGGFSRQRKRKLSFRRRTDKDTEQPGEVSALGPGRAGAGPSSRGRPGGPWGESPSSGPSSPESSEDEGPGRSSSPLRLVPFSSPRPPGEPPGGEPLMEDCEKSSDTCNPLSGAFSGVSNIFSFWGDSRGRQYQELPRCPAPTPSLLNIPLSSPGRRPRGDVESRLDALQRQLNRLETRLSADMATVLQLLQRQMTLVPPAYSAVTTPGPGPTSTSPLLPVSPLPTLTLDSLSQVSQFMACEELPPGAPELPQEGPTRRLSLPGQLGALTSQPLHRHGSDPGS
Take `CCOc1ccc(N2CC(C(=O)Oc3ccccc3)CC2=O)cc1` (centres unmarked): the “hERG current change (%, negative = inhibition) at 10uM” value was -10.9%.
The result for `COC(=O)c1sccc1NC(=O)Nc1cccc([N+](=O)[O-])c1` reads 0.108%.
The result for `O=C(Nc1nnc(-c2ccc(Cl)cc2)o1)c1ccccc1Br` reads -4.79%; that for `CCO[C@@H]1OC(C(=O)N2CCN(C)CC2)=C[C@H](C(C)(C)C)[C@H]1CCCO`, 4.41%.
For `Cc1nnc(SC(C)C(=O)NCC2CCCO2)s1` (centres unmarked), the “hERG current change (%, negative = inhibition) at 10uM” value stood at 0.203%.
With `Cc1onc(-c2ccccc2)c1C(=O)N1CCN(Cc2ccccc2)CC1` the figure was 9.09%; with `Cc1cccc(NC(=O)/C(C#N)=C/c2ccccc2Cl)n1`, 28.4%.
Consider `CCSc1cnc(-c2ccccc2)n1CC.Cl`, for which the “hERG current change (%, negative = inhibition) at 10uM” value is -1.31%.
`Cc1cc(C(C)(C)C)cc(S(=O)(=O)Nc2cccc(C(=O)O)c2)c1C`: the “hERG current change (%, negative = inhibition) at 10uM” value is -4.31%.
The result for `COc1ccc(NC(=S)NNC(=O)c2nnn(-c3ccccc3)c2C)cc1` reads 6.6%; that for `COC(=O)c1ccc(OC)c(NS(=O)(=O)c2ccc(-n3cnnn3)cc2)c1`, -20.9%.
Consider `COc1ccc(CN2CCC(C(=O)N3CCCC(C)C3)CC2)cc1OC.O=C(O)C(=O)O` (centres unmarked), for which the “hERG current change (%, negative = inhibition) at 10uM” value is -19.2%.
Consider `CN1C(=S)SC(/[N+]([O-])=C\c2ccccc2F)C1(C)C` (centres unmarked), for which the “hERG current change (%, negative = inhibition) at 10uM” value worked out at 2.37%.
Consider `CCOC(=O)N1CCN(C(=O)c2cc3c(s2)-c2ccc(Cl)cc2S(=O)(=O)C3)CC1`, for which the “hERG current change (%, negative = inhibition) at 10uM” value is reported as -66.5%.
The result for `CC(NS(=O)(=O)c1ccc2c(c1)c(=O)n(C)c(=O)n2C)C(=O)NC1CCCCC1` (centres unmarked) reads 7.02%.
`S=c1[nH]nc(-c2ccco2)n1-c1cccc2ccccc12`: the “hERG current change (%, negative = inhibition) at 10uM” value is listed as 11.7%.
For the molecule `COC(=O)c1nn(-c2ccc(OC)cc2)c(=O)c2c(N)sc(C)c12`, the “hERG current change (%, negative = inhibition) at 10uM” value is on record as -5.54%.
`CCOC(=O)/C(=C\c1cn(C)c2ccccc12)[N+](=O)[O-]`: the “hERG current change (%, negative = inhibition) at 10uM” value is given as 12.9%.
As to `O=S(=O)(NC1CCCCC1N1CCN(c2ccc(F)cc2)CC1)c1ccc(Cl)cc1` (centres unmarked), the “hERG current change (%, negative = inhibition) at 10uM” value is reported as -22.6%.
The result for `C/C(=N\Nc1ccc(Cl)c(C(=O)O)c1)c1cccs1` reads 0.835%.
The result for `COc1ccc(NC(=O)CCNS(=O)(=O)c2cccc3nonc23)c(OC)c1` reads -3.51%.
As to `CN1CCN(c2ccc(NC(=O)COc3ccc(Cl)cc3Cl)cc2)CC1`, the “hERG current change (%, negative = inhibition) at 10uM” value was -8.64%.
As to `COc1ccc(/C=N/NC(=O)c2cccc([N+](=O)[O-])c2)cc1OC(=O)c1ccccc1`, the “hERG current change (%, negative = inhibition) at 10uM” value came to 5.66%.
Take `O=C(Cn1cnc2c(nnn2Cc2ccc(F)cc2)c1=O)NCc1ccc(F)cc1`: the “hERG current change (%, negative = inhibition) at 10uM” value is 20.6%.
The result for `COc1ccccc1/C=C/C(=O)NCC(=O)N/N=C(/C)c1ccc(Cl)cc1` reads 0.591%.
For `O=C(Cc1cccs1)Nc1ccc(N2CCOCC2)cc1`, the “hERG current change (%, negative = inhibition) at 10uM” value came out at 14.6%.
The result for `CC(C)c1ccc(NC(=O)c2cc([N+](=O)[O-])ccc2N2CCOCC2)cc1` reads -30.8%; that for `O=C(COc1ccccc1)Nc1ccc(Cl)cc1C(=O)c1ccccc1`, 6.83%.
In the case of `COc1ccccc1C(=O)N1CC(=O)Nc2ccc(C)cc2C1c1ccc(F)cc1` (centres unmarked), the “hERG current change (%, negative = inhibition) at 10uM” value is listed as -38.6%.
`CS(=O)(=O)c1ccc(Cl)c(NC(=O)COC(=O)CCN=C2NS(=O)(=O)c3ccccc32)c1`: the “hERG current change (%, negative = inhibition) at 10uM” value is on record as -25.2%.
`Cc1ccc(S(=O)(=O)N(C)CC(=O)NCC(c2ccco2)N(C)C)cc1` (centres unmarked): the “hERG current change (%, negative = inhibition) at 10uM” value was -8.64%.
With `Cc1cc2cc3c(cc2nc1SCc1ccccn1)OCCO3` the figure was 5.43%; with `COc1ccc(-c2c(C#N)c(N)n(N)c(=O)c2C#N)cc1Cl`, 20.5%.
As to `CCc1ccccc1S(=O)(=O)Cc1ccc(C(=O)N2CCN(c3ccccc3OC)CC2)o1`, the “hERG current change (%, negative = inhibition) at 10uM” value is -22.1%.
Take `CCOC(=O)c1[nH]c(CSc2nnc(-c3ccncc3)n2CCOC)c(C(=O)OCC)c1C`: the “hERG current change (%, negative = inhibition) at 10uM” value is -26.6%.
With `COc1cccc(CN(CC(=O)NCc2ccccc2)S(=O)(=O)CCl)c1` the figure was -16.8%; with `N#Cc1c(N)nc(SC2CCCCC2=O)c(C#N)c1-c1ccco1` (centres unmarked), -2.9%.
The result for `COc1ccc(N(CC(=O)N2CCN(c3cccc(C)c3C)CC2)S(=O)(=O)c2c(C)noc2C)cc1` reads 15.1%; that for `O=C(COC(=O)CNC(=O)C1CCCCC1)Nc1cccc(F)c1`, 6.69%.
As for `CCOC(=O)c1c(NC(=O)c2cc(-c3ccc(O)cc3)on2)sc(C(C)=O)c1C`, the “hERG current change (%, negative = inhibition) at 10uM” value turned out to be 10.4%.
The result for `COc1ccc(C(=O)NCC(=O)NCC(=O)OCC(=O)c2cccs2)cc1` reads -1.84%.
With `C=CCNC(=S)N/N=C(\C)c1ccc(-n2ccnc2)cc1`, the “hERG current change (%, negative = inhibition) at 10uM” value is recorded as -43%.
With `CNC(C)c1cc(OC)ccc1OC` (centres unmarked) the figure was 18.8%; with `CCOC(=O)c1cnc(C(C)(C)C)[nH]c1=O`, 9.4%.
